Data as given in PubChem BioAssay AID1508624 (National Center for Advancing Translational Sciences (NCATS), 2021).
In all, about 48,000 compounds went through this assay and about 120 (0.25%) were called active. About 4% were inconclusive and are not listed. Calls come from the whole dose curve; as a rule, active = well fitted activation curve with a large enough effect; inconclusive = small, poorly fitted or top-dose-only effect, or another doubt; inactive = no such curve, though single readings can be large or run the other way. Some of the results follow.

Test: Primary qHTS for Identification of Small Molecule Activators of Huntingtin-Antisense Promoter Activity; note: nearly all actives have a fitted effect of over 55% in size
Settings: HEK293 HTT-AS promoter firefly luciferase reporter, 24 h; series mostly up to 57.5 µM; activity change, positive = activation: at the top concentration
Text: Assay Provider: Russell L. Margolis M.D.
Department Neurology, Johns Hopkins University School of Medicine, Baltimore, MD
Huntington's Disease (HD) is a neurodegenerative disorder caused by a CAG repeat expansion in exon 1 of huntingtin (HTT). While there are currently no disease-modifying treatments for HD, recent efforts have focused on development of nucleotide-based therapeutics to lower HTT expression. As an alternative to siRNA or oligonucleotide methods, we hypothesized that suppression of HTT expression might be accomplished by small molecules that either (1) directly decrease HTT expression by suppressing HTT promoter activity or (2) indirectly decrease HTT expression by increasing the promoter activity of HTT-AS, the gene antisense to HTT that appears to inhibit expression of HTT.
We developed and employed a high throughput screen for modifiers of HTT and HTT-AS promoter activity using luminescent reporter HEK293 cells; of the 52,041 compounds tested, we identified 898 replicable hits. We used a rigorous stepwise approach to assess compound toxicity and the capacity of the compounds to specifically lower huntingtin protein in 5 different cell lines, including HEK293 cells, HD lymphoblastoid cells, mouse primary neurons, HD iPSCs differentiated into cortical-like neurons, and HD hESCs. We found no compounds which were able to lower huntingtin without lowering cell viability in all assays, though the potential efficacy of a few compounds at non-toxic doses could not be excluded.
SEQUENCE No. (1, 2, 3, etc.); […] (e.g., Cells, Incubation, Reagent, etc.); VALUE and DESCRIPTION.
1; Reagent; 4 uL; 2,500 Hek293 luciferase reporter cells per wells
3; Compound; 23 nL; Control inhibitor / compound library
5; Reagent; 2.5 uL; Firefly Luc reagent; Dual-Glo Luciferase Reporter Assay System (Promega)
6; Time; 10 min; room temperature incubation
7; Detection; Luminescence; FLuc
NOTES (numbers refer to sequence above)
1; High-throughput screening, measuring luminescence from a Hek293 luciferase reporter, was performed in 1,536 well white-walled tissue-culture treated plates. 2,500 cells were plated in 4 µL of Opti-MEM per well using a Multidrop Combi Reagent Dispenser (ThermoFisher).
2; Assay plates were cultured for 24 hours.
3; Control inhibitor (PTC124; final concentration of 50 uM) and compound library (at final concentrations of 460 nM - 57.5 uM) were added to the assay plate using the Kalypsis Pintool Robotic System equipped with 1536 pinheads.
4; Cells were then incubated for 24 hours at 37 degrees C prior to luminescence measurements.
5; In all cases, luminescence was measured using the Dual-Glo Luciferase Reporter Assay System (Promega) following the manufacturer's instructions.
6; Room temperature incubation.
7; Luminescence signal was obtained using the PerkinElmer ViewLux plate reader. Results were normalized to vehicle control (0% activity) and zero RLU (-100% activity).

Activity change, positive = activation, inactive:
CCc1ccc(NC(=O)c2cc(C)nn2-c2ccccc2)cc1 -9.6%
Cc1cc(=O)n(CC(=O)NC(C)c2ccccc2)c2c1c(C)nn2C (centres undefined) -15.4%
CCOC(=O)c1c(NC(=O)c2cc3ccccc3c(=O)o2)sc2c1CCC(C(C)(C)C)C2 (centres undefined) 3.75%
O=c1c2ccccc2nc(N2CCN(c3cccc(Cl)c3)CC2)n1-c1ccccc1 -31.4%
CCN(CC)CCCNC(=O)c1nn(-c2ccc(OC)cc2)c(=O)c2c1c1ccccc1n2C -8.13%
CCC(C(=O)N1CCN(c2ccc(OC)cc2)CC1)n1nc(C)n2c(cc3occc32)c1=O (centres undefined) -45.5%
Nc1ccc(S(=O)(=O)NC2(C(F)(F)F)NC(=O)N(c3cccc(Cl)c3)C2=O)cc1 (centres undefined) -3.89%
COC(=O)c1cccc(CN2C(=O)SC(Nc3ccc(Cl)cc3)C2=O)c1 (centres undefined) -19.9%
COc1ccc(Nc2c3c(nc4nncn24)CCC3)cc1Cl -39.6%
CCOC(=O)c1noc2ncnc(Nc3cccc(C(F)(F)F)c3)c12 6.62%
O=C(Nc1ccccc1C(F)(F)F)N1CCC2(CC1)Oc1ccccc1C(=O)N2Cc1ccccc1F -32.6%
CCCCOc1ccc(C(=O)Nc2nc3c(s2)CC(C)CC3)cc1 (centres undefined) -13.4%
CC(=O)Nc1ccc(NC(=O)CCc2c(C)nc3c(c(C)nn3-c3ccccc3)c2C)cc1 -2.67%
COCCNC(=O)c1ccc2c(c1)N(Cc1c(F)cccc1Cl)C(=O)c1ccccc1S2 -21%
CCOC(=O)c1c(C)oc2nc(C)nc(NCc3ccc(OC)cc3)c12 -6.35%
Cc1nnc(NCc2ccc(F)cc2)c2c1nnn2Cc1ccccc1Cl -1.78%
CCOc1ccc(NC(=O)CCn2nc(C)c(S(=O)(=O)N3CCCCC3)c2C)cc1 -14.7%
COc1ccccc1N1CCN(S(=O)(=O)c2c(C)sc3ncn(CC(=O)NCCN(C)C)c(=O)c23)CC1 7.04%
COc1ccc(OC)c(NC(=O)CSC2=Nc3ccccc3C3=NC(CCC(=O)NCCc4ccccc4)C(=O)N23)c1 (centres undefined) -21.8%
CCc1ccc(N2C(=O)N(CC(=O)C(C)(C)C)c3ccccc3S2(=O)=O)cc1 -19.2%
O=C(NCCC1=CCCCC1)c1ccc2c(c1)N(Cc1ccc(Cl)cc1)C(=O)c1ccccc1S2(=O)=O -5.89%
Cc1c(Cl)cccc1NC(=O)Cn1cnc(S(=O)(=O)N2CCCC2)c1 -6.95%
COc1ccc(CCNC(=O)Cn2nc(C)c3c(C)n(-c4ccc(C)cc4)nc3c2=O)c(OC)c1 -68.2%
COc1ccc(NC(=O)CC2C(=O)N(c3ccc(C)cc3)C(=O)N2Cc2ccc(C)cc2)cc1 (centres undefined) 14%
CCOc1ccc(CCNC(=O)C2CCN(Cc3nc(-c4ccccc4C)oc3C)CC2)cc1OCC -11.9%
O=C(CC(NCc1cccnc1)C(=O)O)Nc1ccc(O)cc1 (centres undefined) -16.6%
CCN(C(=O)CSc1nc2ccccc2n1CC(=O)N1CCCC(C)C1)c1ccccc1 (centres undefined) -23.8%
Fc1ccc(Nc2c(-c3ccco3)nc3ccccn23)cc1 -18.9%
COc1ccc(C=CC(=O)Nc2ccccc2C(=O)O)cc1OC -85%
Cn1c(=O)c(=O)n(C)c2cc(S(=O)(=O)Nc3ccc(Cl)c(C(F)(F)F)c3)ccc21 -20.9%
Cc1ccc(C2c3[nH]c4ccccc4c3CCN2C(=O)CCc2ccccc2)cc1 (centres undefined) -39.1%
CC(C)(C)c1ccc(C(=O)N2CCN(Cc3cc(=O)n4nc(-c5ccccc5F)sc4n3)CC2)cc1 -0.0911%
Cc1ccc(NC(=O)C2CCC(CNS(=O)(=O)c3ccc4c(c3)C(C)(C)C(=O)N4C)CC2)cc1 (centres undefined) -26.9%
CCOc1ccc(CNC(=O)Cc2ccc(NC(=O)N3CCCCc4ccccc43)cc2)cc1OC -8.44%
COc1cc(OC)c(NC(=O)Cn2cnc3nc4c(cc3c2=O)CCCC4)cc1Cl -7.77%
Cc1cc(=O)oc2cc(OCC(=O)Nc3c(C(C)C)cccc3C(C)C)ccc12 -16.6%
Clc1ccc(-c2nnn3c2nc(NCc2ccc4c(c2)OCO4)c2ccccc23)cc1 -0.526%
Cc1cnc2c(c1SCC(=O)NCc1ccccc1Cl)c(=O)n(C)c(=O)n2C -4.82%
CC(C)(Oc1ccc(Cl)cc1)C(=O)Nc1nnc2n1CCS2 -21.3%
CCCCNC(=O)CC1N=C2c3ccccc3N=C(SCC(=O)NCc3ccccc3Cl)N2C1=O (centres undefined) -13.5%
COc1cccc(C(=O)Nc2cccc(OCc3cc(=O)n4cccc(C)c4n3)c2)c1 -8.95%
Cc1ccc(NC(=O)CCC(=O)N2CCSc3ccccc32)cc1 -3.02%
O=C(COc1ccccc1)Nc1nnc(SCc2cc(=O)c3ccccc3[nH]2)s1 -37.1%
Clc1ccc(-c2noc(-c3cccnc3N3CCN(c4ccccc4)CC3)n2)cc1 -1.94%
CCc1ccccc1Nc1cc(C(=O)NCCCN(C)C2CCCCC2)c2ccccc2n1 -26.4%
CCOc1ccc(NC(=O)Cn2cc(C(=O)c3ccccc3)c(=O)c3cc4c(cc32)OCCO4)cc1 -34.1%
Cc1ccc(C)c(N2CCN(C(=O)c3nn(C)c4c3CS(=O)(=O)c3ccccc3-4)CC2)c1 -34.1%
Cc1ccn2c(Nc3ccccc3C)c(-c3cccnc3)nc2c1 -10.3%
Cc1cc(=O)oc2c3c(ccc12)OCN(Cc1ccc(Cl)cc1)C3 -8.61%
CCc1nn2c(=O)cc(COC(=O)c3ccccc3NC(=O)c3cccs3)nc2s1 1.61%
CCn1nc(C)c2c(-c3ccccc3)cc(=O)n(C(C)C(=O)NCCc3ccccc3)c21 (centres undefined) -27.5%
O=C(CCn1ccc2cc(S(=O)(=O)N3CCCC3)ccc21)NCc1ccccc1Cl -17.5%
COc1cccc(-c2nnc3sc(CN4CCCCC4)cn23)c1 -30.1%
CCC1CCCCN1C(=O)Cn1c(=O)n(CCCCCC(=O)NCc2ccccc2Cl)c(=O)c2sccc21 (centres undefined) -17.7%
O=C(NCCc1ccc(Cl)cc1)c1ccc2c(c1)N(Cc1cccc(Cl)c1)C(=O)c1ccccc1S2(=O)=O -14.2%
COc1cc(NC(=O)CCNC(=O)Cn2cnc3ccccc3c2=O)cc(OC)c1OC 7.67% [at 11.5 µM, percent change from vehicle, -100% = no light]
COc1ccc(CCn2c(=O)c3cccnc3n(CC(=O)Nc3c(C)cc(C)cc3C)c2=O)cc1OC 11%
CCCc1cc(N2CCN(c3ccc(OC)cc3)CC2)n2cnnc2n1 -22.9%
Cc1cc(C)c(NC(=O)Nc2csc3c2CCCC3)c(C)c1 -16.1%
CCC(=O)N1CCc2cc(Br)cc(S(=O)(=O)NCc3ccccc3)c21 -19.5%
O=C(CCCCCn1c(=O)[nH]c2ccccc2c1=O)NCc1ccc(Cl)cc1 16.3%
COc1ccccc1-c1nc(SCC(=O)Nc2ccc(C)c(C)c2)n[nH]1 2.15% [at 11.5 µM, percent change from vehicle, -100% = no light]
O=C(O)c1cc(=O)c2c(OCC(O)COc3cccc4oc(C(=O)O)cc(=O)c34)cccc2o1
CSc1ccc(CCNC(=O)C2CCN(c3ncnc4c3nc3n4CCCCC3)CC2)cc1 -8.95%
CCN(CC)C(=O)COc1ccc(-c2nnc(Nc3ccc(OC)c(C(=O)NC)c3)c3ccccc23)cc1 -1.01%
Cc1sc2ncn(CC(=O)N(C)c3cccc(C(F)(F)F)c3)c(=O)c2c1S(=O)(=O)N1CCN(c2ncccn2)CC1 -18.1%
Fc1ccc(-n2ncc3c(N4CCN(c5ccccc5F)CC4)ncnc32)cc1 1.19%
COc1ccc(C2c3c(-c4ccc(F)cc4)n[nH]c3C(=O)N2c2ccccc2)cc1OC (centres undefined) -14.5%
CCOc1ccc(CCNC(=O)c2cc3c(-c4ccccc4F)nn(C)c3s2)cc1OCC -41.9%
CCOC(=O)c1ccc(NC(=O)c2ccc(-c3cccc(Cl)c3C)o2)cc1 -21.9%
Cc1ccccc1CNC(=O)CCSCc1cnn(-c2ccccc2)c1-n1cccc1 -24.1%
O=c1c2oc3ccccc3c2ncn1Cc1ccc(Br)cc1 0.811%
COc1ccc(C2c3c(oc4ccccc4c3=O)C(=O)N2c2nc(C)c(C)s2)cc1 (centres undefined) -1.14% [at 11.5 µM, percent change from vehicle, -100% = no light]
Oc1c(Cl)cc(Cl)cc1Sc1cc(Cl)cc(Cl)c1O -90.9%
C=CCc1ccccc1OCC(O)CNC(C)C (centres undefined) -10.2%
O=C(COc1ccccc1)Nc1ccc2nc(SCC(=O)N3CCCC3)sc2c1 1.15%
COc1ccc(C2CC(=O)Oc3c2c(=O)n(C)c2ccccc32)c(OC)c1OC (centres undefined) -14.6%
Fc1ccc(N2CCN(c3ncnc4c3nc3n4CCCC3)CC2)cc1 -39.6%
CCOc1ccc(NC(=O)CS(=O)(=O)Cc2nc(-c3ccc(C)cc3)oc2C)cc1 -17.1%
CC(=O)OC(C)C[N+](C)(C)C (centres undefined) -3.5%
COc1ccc(OC)c2sc(N(CCCN(C)C)C(=O)c3ccco3)nc12 -24.2%
CCCCOc1ccc(CC(=O)NO)cc1
CCOc1cc(-c2nnc(SCC(=O)NCCCOC)nc2-c2ccc(OC)c(OCC)c2)ccc1OC 10.5%
COc1ccc(NC(=O)C(NS(=O)(=O)c2cccc3nsnc23)c2ccccc2)cc1 (centres undefined) 9.99%
CCC(=O)Nc1nnc(S(=O)(=O)N2CCCCCC2)s1 -9.8%
Cn1cc(S(=O)(=O)N2CCCCC2)cc1C(=O)NCc1ccc(Cl)cc1 -29.8%
Cc1ccc(N2CCN(S(=O)(=O)c3cc(Br)cc4c3N(C(=O)C3CC3)CC4)CC2C)cc1 (centres undefined) -13.6%
CCCCSc1nnc2c(n1)OC(c1ccc(C)s1)Nc1ccccc1-2 (centres undefined) 10.9%
CCC(CC)c1nn2cc(-c3ccccc3)nc2s1 -38.8%
CCS(=O)(=O)N1CC(=O)N(c2ccc(C)c(C)c2)C(C)(C(=O)NC2CCCCCC2)C1 (centres undefined) -2.59%
CCCN(C(=O)c1cn(CC(C)C)c(=O)c2cc(OC)c(OC)cc12)c1cccc(C)c1 -28.5%
COc1ccc(-c2cn3c(n2)sc2cc(C(=O)N4CCCCC4)ccc23)cc1 -14.3%
COc1ccc(N2CC(NC(=O)Cc3cccs3)CC2=O)cc1OC (centres undefined) -12.4%
Cc1cc(S(=O)(=O)Nc2ccc3[nH]c(=O)sc3c2)ccc1F -28.4%
